The campaign covered roughly 48,000 compounds. About 550 (1.1%) were called active. Not shown: some 4% with an inconclusive outcome. Cut-off read from the data, not from the text of the source: active = potency below about 15 µM; inconclusive = mostly about 16 µM to 33 µM; inactive = weaker than that. The list shows a part of the results.
Target: Lysosomal acid glucosylceramidase (Homo sapiens) (UniProt P04062)
Experiment: Glucocerebrosidase;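 note: the screen sought inhibitors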
Settings: purified enzyme, resorufin glucoside fluorescence (screen aimed at inhibitors), 20 min
Outline: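 Compounds titrated against 0.2 nM normal enzyme, 30 uM resorufin beta-D-glucopyranoside substrate, citrate/phosphate buffer with taurocholate and tween-20, pH 5.9. Reaction ran 20 min at room temperature; fluorescence (Ex 548/Em 600) gave AC50.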
Potency is the fitted concentration of half-maximal effect.

UniProt P04062, sequence (P04062 whole entry, looked up): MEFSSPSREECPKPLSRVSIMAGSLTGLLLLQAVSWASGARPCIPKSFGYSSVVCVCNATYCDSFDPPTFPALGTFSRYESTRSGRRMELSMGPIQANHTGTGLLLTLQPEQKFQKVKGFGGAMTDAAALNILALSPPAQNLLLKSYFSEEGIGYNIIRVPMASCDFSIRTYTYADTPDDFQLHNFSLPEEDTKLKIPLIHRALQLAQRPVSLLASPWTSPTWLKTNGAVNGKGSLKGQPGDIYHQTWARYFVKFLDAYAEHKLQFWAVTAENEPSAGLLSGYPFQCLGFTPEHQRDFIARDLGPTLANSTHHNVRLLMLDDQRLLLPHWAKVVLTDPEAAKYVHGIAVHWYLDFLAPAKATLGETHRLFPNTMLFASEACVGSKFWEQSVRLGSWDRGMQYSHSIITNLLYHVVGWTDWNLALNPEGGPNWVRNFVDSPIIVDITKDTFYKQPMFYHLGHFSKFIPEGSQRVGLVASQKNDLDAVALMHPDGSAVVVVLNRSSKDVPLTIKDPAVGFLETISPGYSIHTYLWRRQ

Potency, inactive:
Cc1c(N(C)C(=O)C23CC4CC(CC(C4)C2)C3)c(=O)n(-c2ccccc2)n1C > 76.9 µM, O=C(CSc1nnc(-c2cccs2)o1)NCC1CN(Cc2ccccc2)CCO1 (configuration not stated) > 76.9 µM, COc1cc(-c2nc(-c3ccc(NC(=O)c4ccc5c(c4)OCO5)cc3)no2)cc(OC)c1OC > 76.9 µM, O=C(COc1ccc(S(=O)(=O)N2CCCC2)cc1Cl)NCc1ccc2c(c1)OCO2 > 76.9 µM, COCCNC(=O)CN(C(=O)Cn1nnc2ccccc21)c1ccc(F)c(Cl)c1 > 76.9 µM, Clc1ccc(-c2nnc(SCc3cn4ccsc4n3)n2CC2CCCO2)cc1 (configuration not stated) > 76.9 µM, COc1ccc(CNC(=O)c2cnc(C)cn2)c(OC)c1 > 76.9 µM, CCc1n[nH]c2c1/C(=N/O)CCC2 > 76.9 µM, Cc1ccc(S(=O)(=O)NCCNC(=O)C2CCCNC2=O)cc1 (configuration not stated) > 76.9 µM, CCC(Sc1nc(C)cc(=O)[nH]1)C(=O)Nc1nc2c(s1)CCCC2 (configuration not stated) > 76.9 µM, O=C(NCc1ccccc1F)C1CCN(C(=O)NCc2ccccc2)CC1 > 76.9 µM, CCOc1ccc(NC(=O)C2CC(=O)N3CCCN=C3S2)cc1 (configuration not stated) > 76.9 µM, O=C(CSc1ccccc1C(=O)NCCCN1CCCC1=O)NCc1ccco1 > 76.9 µM, CC(=O)Nc1ccc(OCC(O)CN2CCN(Cc3ccccc3)CC2)cc1 (configuration not stated) > 76.9 µM, CC1CN(C(=O)C(C)Sc2nc3ccccc3s2)CC(C)O1 (configuration not stated) > 76.9 µM, CN(C)S(=O)(=O)c1cccc(C(=O)OCC(=O)Nc2ccccc2OC(F)F)c1 > 76.9 µM, O=C(O)Cn1cc2c(n1)CCCC2 > 76.9 µM, COc1cccc(C(=O)N(CN2CCCC2=O)c2ccccc2OC)c1 > 76.9 µM, COc1ccc(CCn2nnnc2C(CC(C)C)N2CCC(C(N)=O)CC2)cc1OC (configuration not stated) > 76.9 µM, O=C(CN1CCCCCC1)NCCc1ccc(F)cc1 > 76.9 µM, COc1ccc(F)cc1CN1CCN(c2cc(C)nc3c4c(C)cc(C)nc4nn23)CC1 > 76.9 µM, Cc1ccnc(NS(=O)(=O)c2ccc(NC(=O)C3CCCCC3C(=O)O)cc2)n1 (configuration not stated) > 76.9 µM, O=C1CC(N2CCC(c3nc4ccccc4o3)CC2)C(=O)N1c1ccc(Cl)cc1 (configuration not stated) > 76.9 µM, CCN(CCCNC(=O)COc1cc(=O)n(CC)c2ccccc12)Cc1ccccc1 > 76.9 µM, CCN(CC)C(=O)c1cc(-c2ccc(Br)cc2)on1 > 76.9 µM, O=C(COc1ccc(S(=O)(=O)N2CCc3ccccc32)cc1Cl)NCc1ccccn1 > 76.9 µM, CC(C)Oc1ccc(CNCC2(O)CCOC(C)(C)C2)cc1 (configuration not stated) > 76.9 µM, Cc1ccc(N(CC(=O)NCc2ccc3c(c2)OCO3)S(C)(=O)=O)cc1 > 76.9 µM, C=CCN(C(=O)CSc1nc2[nH]ncc2c(=O)n1-c1ccccc1OC)c1ccccc1 > 76.9 µM, O=C(CN1CCN(C(=O)c2cccc(F)c2)CC1)NC1CCCCC1 > 76.9 µM, COc1ccc(CCNC(=O)C2CCN(S(=O)(=O)c3c(C)noc3C)CC2)cc1OC > 76.9 µM, Cc1nn(-c2ccc(F)cc2)c2nc(N)c(C#N)c(-c3cccs3)c12 > 76.9 µM, CN(C)c1ccc(C(=O)OCC(=O)c2cccs2)cc1 > 76.9 µM, COc1ccccc1-c1nnc2sc(COc3ccc(Cl)cc3)nn12 > 76.9 µM, O=C(CCNc1cccc(Cl)c1)c1ccco1 > 76.9 µM, CCOc1nc(Nc2ccc(-c3nc4ccccc4o3)cc2)nc(N2CCOCC2)n1 > 76.9 µM, Cn1c2ccc(F)cc2c2ncn(CCN3CCOCC3)c(=O)c21 > 76.9 µM, O=C(Nc1nc(-c2cccnc2)cs1)c1ccc(S(=O)(=O)N2CCOCC2)cc1 > 76.9 µM, CC(=O)Oc1ccc(N(C(C)=O)S(=O)(=O)c2cccs2)cc1 > 76.9 µM, COc1ccc2nc(C)cc(C(=O)O)c2c1 > 76.9 µM, CCCn1cnc2cc(NCc3cccc(OC)c3)ccc21, Cc1cc(=O)n2c(C)n[nH]c2n1 > 76.9 µM, Cn1c(=O)c2c(nc(Oc3ccccn3)n2C)n(C)c1=O > 76.9 µM, Cc1cc(N2CCN(C(=O)c3ccco3)CC2)n2ncnc2n1 > 76.9 µM, Cc1cc(C)nc(NC(=O)Nc2ccccc2C(F)(F)F)n1 > 76.9 µM, O=C(COc1ccccc1)N1CCN(C(=O)c2cccs2)CC1 > 76.9 µM, Cc1ccc2cc(CN(Cc3ccc4c(c3)OCO4)Cc3nnnn3Cc3ccco3)c(=O)[nH]c2c1 > 76.9 µM, COc1ccc(-n2c(C)cc(C(=O)Cn3c(NCCO)nc4ccccc43)c2C)cc1, C=CCc1c(C)[nH]c(=S)c(C#N)c1C > 76.9 µM, Cc1cc(C)cc(NC(=O)CSc2nnc(-c3ccccc3C)o2)c1 > 76.9 µM, Clc1cc(Cl)c2nc(N3CCCCC3)sc2c1 > 76.9 µM, N#Cc1c(N)sc(=S)c2c1CCCC2 > 76.9 µM, CCOC(=O)N1CCN(C(=O)c2ccc(Cl)c(S(=O)(=O)N3CCOCC3)c2)CC1 > 76.9 µM, Cc1cnc(C(=O)Nc2cccc(-c3nnc4n3CCCCC4)c2)cn1 > 76.9 µM, CCOC(=O)C1=C(C)NC(=O)NC1c1ccccc1Cl (configuration not stated) > 76.9 µM, O=C(Cn1c(=O)oc2ccccc21)N1CCCCC1 > 76.9 µM, COc1ccc(CCC2(C)NC(=O)NC2=O)cc1 (configuration not stated) > 76.9 µM, Cc1ccnc(NC(=O)Nc2ccc3c(c2)N(C)C(=O)CS3)c1 > 76.9 µM, CN(C)c1ccc(-c2nnn(CC(=O)Nc3ccccc3N3CCOCC3)n2)cc1 > 76.9 µM, COc1ccc(CCNC(=O)COc2ccc(S(=O)(=O)N3CCOCC3)cc2)cc1 > 76.9 µM, O=C(NCC1CCCO1)c1cccc(Br)c1 (configuration not stated) > 76.9 µM, Cc1cc(C)c(NC(=O)CN2C(=O)NC3(CCCCC3)C2=O)c(Cl)c1 > 76.9 µM, O=C(c1ccco1)n1c(=S)nc2ccccn21 > 76.9 µM, O=C(Nc1ccc2c(c1)oc1ccccc12)c1ccc2c(c1)OCO2 > 76.9 µM, Nc1c(N2CCCCC2)c(=O)[nH]c(=O)n1-c1ccccc1 > 76.9 µM, CCC(=O)N1Cc2ccccc2-c2ccccc2C1=O > 76.9 µM, CC1(C)NC(=O)NC2(C)NC(=O)NC(C)(C)C12 (configuration not stated) > 76.9 µM, COCc1[nH]nc2c1C1(C(=O)N(C)c3ccccc31)C(C#N)=C(N)O2 (configuration not stated) > 76.9 µM, O=c1c2[nH]c3ccccc3c2ncn1C1CCCCC1 > 76.9 µM, Cc1c(C(=O)N2CCN(S(C)(=O)=O)CC2)oc2ccccc12 > 76.9 µM, N#CC1=C2SCN(Cc3ccccc3)CN2C(=O)CC1c1ccc2c(c1)OCO2 (configuration not stated) > 76.9 µM, CCCn1nnnc1NCc1ccccc1OCc1ccc(F)cc1 > 76.9 µM, CCN(CC)CCN1C(=O)C(O)=C(C(C)=O)C1c1ccccc1 (configuration not stated) > 76.9 µM, COCCCNC(=O)c1cn(Cc2c(F)cccc2Cl)nn1 > 76.9 µM, Clc1ccc(OCc2nnc(-c3ccccc3Br)o2)cc1 > 76.9 µM, CCCS(=O)(=O)c1c(S(=O)(=O)CCC)c2cnccn2c1C(=O)c1ccc(F)cc1 > 76.9 µM, Cc1nc2c3ccccc3[nH]c(=O)n2n1 > 76.9 µM, O=c1c2ccccc2c(C=NCCO)c(O)n1-c1ccccc1 > 76.9 µM, O=C(CN1C(=O)C2CCc3[nH]c4ccccc4c3C2C1=O)N1CCCC1 (configuration not stated) > 76.9 µM, COC(=O)COc1ccc2oc(=O)cc(C)c2c1 > 76.9 µM, NC(=O)CSc1nnc(-c2ccc(S(=O)(=O)N3CCCC3)cc2)n1CC1CCCO1 (configuration not stated) > 76.9 µM, O=S(=O)(NCc1cccnc1)c1ccc(Cl)c(Cl)c1Cl > 76.9 µM, NC(=O)CSc1nc2sc3c(c2c2ncnn12)CCCC3 > 76.9 µM, O=C(CN1CCN(C(c2ccccc2)c2ccccc2)CC1)N1CCOCC1 > 76.9 µM, O=C(CN1C(=O)c2ccccc2C1=O)N1CCN(c2ccccc2)CC1 > 76.9 µM, Cc1cc(NC(c2cccnc2)c2c(C)[nH]c3ccccc23)no1 (configuration not stated) > 76.9 µM, O=C(CSc1nnc(-c2cccnc2)o1)Oc1ccccc1 > 76.9 µM, CCOC(=O)C1CCN(C=Nc2cc(C)on2)CC1 > 76.9 µM, COc1ccc(C(=O)N2CCN(C(C)=O)CC2)cc1S(=O)(=O)NCc1ccc(Cl)cc1 > 76.9 µM, CC(NC(=O)C1CC=CCC1C(=O)O)C1CC2CCC1C2 (configuration not stated) > 76.9 µM, COc1ccc(CN2CC(C(=O)NCc3cccc(OC)c3)CC2=O)cc1 (configuration not stated) > 76.9 µM, Cc1ccc(S(=O)(=O)N(Cc2cc3cc4c(cc3[nH]c2=O)OCCO4)CC2CCCO2)cc1 (configuration not stated) > 76.9 µM
